Test results taken from PMC11149917, “Translational and Therapeutic Evaluation of RAS-GTP Inhibition by RMC-6236 in RAS-Driven Cancers” (Cancer Discovery, 2024).
Further values from the same series stand in other lists.

Test system: PRISM panel of 845 cancer cell lines
Experiment: PRISM assay
Assay type: cell-based, human
Protocol: The PRISM cell set comprised 845 cell lines representing more than 45 lineages (see Supplementary Table S1 for cell line information), which largely overlapped with the Cancer Cell Line Encyclopedia; https://portals.broadinstitute.org/ccle). Cell lines were grown in RPMI without phenol red and supplemented with 10% or 20% FBS for adherent and suspended lines, respectively. Parental cell lines were stably infected with a unique 24-nucleotide DNA barcode via lentiviral transduction and blasticidin selection. After selection, barcoded cell lines were expanded and subjected to quality control (Mycoplasma contamination test, an SNP test for confirming cell line identity, and barcode ID confirmation). Approved cell lines were then pooled (20–25 cell lines per pool) based on doubling time similarity and frozen in assay-ready vials.
RMC-6236 was added to 384-well plates at 8-point concentration with 3-fold dilutions in triplicate. These assay-ready plates were then seeded with the thawed cell line pools. Adherent cell pools were plated at 1,250 cells per well, whereas suspension and mixed adherent/suspension pools were plated at 2,000 cells per well. Treated cells were incubated for 5 days, and then lysed. Lysate plates were collapsed together prior to barcode amplification and detection.
Each cell line's unique barcode is located in the 3′UTR of the blasticidin-resistance gene and therefore is expressed as mRNA. Total mRNA was captured using magnetic particles that recognize polyA sequences. Captured mRNA was reverse-transcribed into cDNA and then the sequence containing the unique PRISM barcode was amplified using PCR. Finally, Luminex beads that recognize the specific barcode sequences in the cell set were hybridized to the PCR products and detected using a Luminex scanner which reports the signal as a median fluorescent intensity (MFI).
• Each detection well contained 10 control barcodes in increasing abundances as spike-in controls. For each plate, we first create a reference profile by calculating the median of the log2(MFI) values across negative control wells for each of these spiked-in barcodes. • For each well, a monotonic smooth p-spline was fitted to map the spike-in control levels to the reference profile. Next, we transform the log2(MFI) for each cell barcode using the fitted spline to allow well-to-well comparisons by correcting for amplification and detection artifacts. • Next, the separability between negative and positive control treatments was assessed. In particular, we calculated the error rate of the optimum simple threshold classifier between the control samples for each cell line and plate combination. The error rate is a measure of the overlap of the two control sets and was defined as error = (FP + FN)/n, where FP is false positives, FN is false negatives, and n is the total number of controls. A threshold was set between the distributions of positive and negative control log2(MFI) values (with everything below the threshold said to be positive and above said to be negative) such that this value is minimized. Additionally, we also calculated the dynamic range of each cell line. […] Additionally, any cell line that had less than 2 passing replicates was also omitted for the sake of reproducibility. Finally, we computed viability by normalizing with respect to the median negative control for each plate.
For every gene with nonsilent mutations in at least four cell lines, we compared the AUC values between cells with and without those mutations using a t test. This analysis was carried out for (i) the full data set; (ii) excluding cell lines with nonsilent KRAS mutations; and (iii) excluding cell lines that have either KRAS or NRAS nonsilent mutations.

CCn1c(-c2cc(N3CCN(C)CC3)cnc2[C@H](C)OC)c2c3cc(ccc31)-c1csc(n1)C[C@H](NC(=O)[C@H]1C[C@@H]1C)C(=O)N1CCC[C@H](N1)C(=O)OCC(C)(C)C2 [RMC-6236]
RMC-6236: RevMed PRISM: AUC (cell line SKMEL24_SKIN): 0.8099
RMC-6236: RevMed PRISM: AUC (cell line SKNMC_BONE): 0.9307
RMC-6236: RevMed PRISM: AUC (cell line SMSCTR_SOFT_TISSUE, HRAS p.Q61K): 0.448
RMC-6236: RevMed PRISM: AUC (cell line SNB75_CENTRAL_NERVOUS_SYSTEM): 0.7427
RMC-6236: RevMed PRISM: AUC (cell line SNU1_STOMACH, KRAS p.G12D): 0.4901
RMC-6236: RevMed PRISM: AUC (cell line SNU81_LARGE_INTESTINE, KRAS p.A146T, NRAS p.E132K): 0.8361
RMC-6236: RevMed PRISM: AUC (cell line SNU201_CENTRAL_NERVOUS_SYSTEM): 0.9124
RMC-6236: RevMed PRISM: AUC (cell line SNU308_BILIARY_TRACT): 0.6147
RMC-6236: RevMed PRISM: AUC (cell line SNU407_LARGE_INTESTINE, KRAS p.G12D): 0.5721
RMC-6236: RevMed PRISM: AUC (cell line SNU449_LIVER): 0.8623
RMC-6236: RevMed PRISM: AUC (cell line SNU466_CENTRAL_NERVOUS_SYSTEM): 0.4954
RMC-6236: RevMed PRISM: AUC (cell line SNU638_STOMACH): 0.8249
RMC-6236: RevMed PRISM: AUC (cell line SNU719_STOMACH, NRAS p.Q61L): 0.5187
RMC-6236: RevMed PRISM: AUC (cell line SNU761_LIVER): 1
RMC-6236: RevMed PRISM: AUC (cell line SNU840_OVARY): 0.6568
RMC-6236: RevMed PRISM: AUC (cell line SNU886_LIVER): 0.654
RMC-6236: RevMed PRISM: AUC (cell line SNU1041_UPPER_AERODIGESTIVE_TRACT): 0.6882
RMC-6236: RevMed PRISM: AUC (cell line SNUC4_LARGE_INTESTINE): 0.799
RMC-6236: RevMed PRISM: AUC (cell line SQ1_LUNG): 0.6318
RMC-6236: RevMed PRISM: AUC (cell line STM9101_SOFT_TISSUE): 0.9112
RMC-6236: RevMed PRISM: AUC (cell line SUM159PT_BREAST, HRAS p.G12D): 0.7173
RMC-6236: RevMed PRISM: AUC (cell line SUPB15_HAEMATOPOIETIC_AND_LYMPHOID_TISSUE): 0.7241
RMC-6236: RevMed PRISM: AUC (cell line SW13_ADRENAL_CORTEX): 0.6892
RMC-6236: RevMed PRISM: AUC (cell line SW1353_BONE): 0.9995
RMC-6236: RevMed PRISM: AUC (cell line SW1710_URINARY_TRACT): 0.8584
RMC-6236: RevMed PRISM: AUC (cell line TANOUE_HAEMATOPOIETIC_AND_LYMPHOID_TISSUE): 0.6225
RMC-6236: RevMed PRISM: AUC (cell line TC205_BONE): 0.8932
RMC-6236: RevMed PRISM: AUC (cell line TCCSUP_URINARY_TRACT): 0.8252
RMC-6236: RevMed PRISM: AUC (cell line TE4_OESOPHAGUS): 0.7638
RMC-6236: RevMed PRISM: AUC (cell line TE9_OESOPHAGUS): 0.7204
RMC-6236: RevMed PRISM: AUC (cell line TE617T_SOFT_TISSUE): 0.4026
RMC-6236: RevMed PRISM: AUC (cell line TFK1_BILIARY_TRACT): 0.8395
RMC-6236: RevMed PRISM: AUC (cell line TM87_SOFT_TISSUE): 0.8548
RMC-6236: RevMed PRISM: AUC (cell line TOV21G_OVARY, KRAS p.G13C): 0.6993
RMC-6236: RevMed PRISM: AUC (cell line TTC442_SOFT_TISSUE): 0.8703
RMC-6236: RevMed PRISM: AUC (cell line TTC549_SOFT_TISSUE): 0.8297
RMC-6236: RevMed PRISM: AUC (cell line TTC1240_SOFT_TISSUE): 0.7124
RMC-6236: RevMed PRISM: AUC (cell line UACC257_SKIN): 0.8972
RMC-6236: RevMed PRISM: AUC (cell line UMRC3_KIDNEY): 0.8143
RMC-6236: RevMed PRISM: AUC (cell line UMUC13_URINARY_TRACT): 0.5595
RMC-6236: RevMed PRISM: AUC (cell line VMRCRCZ_KIDNEY): 0.8774
RMC-6236: RevMed PRISM: AUC (cell line WERIRB1_AUTONOMIC_GANGLIA): 0.8
RMC-6236: RevMed PRISM: AUC (cell line WM793_SKIN): 0.8128
RMC-6236: RevMed PRISM: AUC (cell line WSUDLCL2_HAEMATOPOIETIC_AND_LYMPHOID_TISSUE): 0.7311
RMC-6236: RevMed PRISM: AUC (cell line YD15_SALIVARY_GLAND): 0.7048
RMC-6236: RevMed PRISM: AUC (cell line YH13_CENTRAL_NERVOUS_SYSTEM): 0.941
RMC-6236: RevMed PRISM: AUC (cell line YKG1_CENTRAL_NERVOUS_SYSTEM): 0.7657
